According to PubChem BioAssay AID686978 (National Center for Advancing Translational Sciences (NCATS), 2013):
The whole screen tested about 420,000 compounds, of which about 64,000 (15%) were called active. This list was built around the results that the source calls inconclusive (neither active nor inactive); the mix of calls is not that of the screen. Calls come from the whole dose curve; as a rule, active = well fitted inhibition curve with a large enough effect; inconclusive = small, poorly fitted or top-dose-only effect; inactive = flat fitted curve, though single readings scatter. Potencies of inconclusive entries are left out as doubtful fits.

Experiment: qHTS for Inhibitors of human tyrosyl-DNA phosphodiesterase 1 (TDP1): qHTS in cells in absence of CPT; note: nearly all actives have a fitted effect of over 55% in size
Conditions: DT40 Tdp1-/- hTDP1 cells, no CPT, ATP luminescence, 48 h; activity change, negative = growth inhibition: at 46.2 µM (top of the series) unless noted
Outline: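 Camptothecin absent (DMSO only). Human TDP1-complemented DT40 knockout cells, 400 cells/well, 37 °C for minimum 48 hr; ATP measured via CellTiter-Glo, 30 min dark incubation, luminescence.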
% is set by controls: 0 for no effect and ±100 for the full control effect; potency is the fitted concentration of half-maximal effect; tags give direction and shape of the fitted curve.

SMILES	activity change, negative = growth inhibition	Potency
OCC[C@@H]1C[C@H](O)[C@@H](O)[C@@]2(OCc3cc(Cl)ccc32)O1	inactive: -5%	
C/C(CC(=O)NC(C)C)=N\NC(=O)COc1cc(C)c(Br)cc1Br		inconclusive [inhibitor, single point]
Cc1nn(-c2ccccc2)c(C)c1NC(=O)COc1ccc([N+](=O)[O-])cc1		active: 14.6 µM
COc1ccc(C2C(C(=O)c3ccccc3)=C(C)Nc3nc4ccccc4n32)cc1OC (stereo unspecified)		active: 14.6 µM
Cc1ccc(-c2nn(CC(=O)Nc3cccc(C(F)(F)F)c3)c(=O)c3ccccc23)cc1		inconclusive [inhibitor, single point]
CCN(CC(=O)NCc1ccc(F)cc1)C(=O)COc1ccc2ccccc2c1	inactive: -28.7%	
Cc1oc(C)c2c(=O)cc(-c3ccc4c(c3)OCO4)cc(OC(=O)c3ccc(Cl)cc3)c12		inconclusive [inhibitor, single point]
O=C1N=c2ccccc2=C1c1sc(=O)[nH]c1O		inconclusive [inhibitor, single point]
O=C1C=C(c2ccccc2)CC(c2ccc(F)cc2)C1 (stereo unspecified)		inconclusive [inhibitor, single point]
NC(CC(=O)O)c1ccc(Br)cc1 (stereo unspecified)	inactive: 3.65%	
O=C(N/N=C/C1CC=CCC1)c1ccccc1O (stereo unspecified)	inactive: -9.33%	
NC(CSCC(=O)O)C(=O)O (stereo unspecified)	inactive: -2.84%	
COc1ccccc1Cn1c(CNS(=O)(=O)c2cccc([N+](=O)[O-])c2)nc2cccnc21		active: 16.4 µM
Cc1ccccc1-n1c(SCC(=O)NCc2cccs2)nc2ccccc2c1=O		inconclusive [inhibitor, single point]
COc1ccc(-c2nc3ccc(C)cn3c2Cc2ccccc2)cc1OC		active: 23.1 µM
Cc1ccc(S(=O)(=O)N2CCN(C(=O)CCn3cncn3)CC2)cc1	inactive: 1.68%	
COc1ccc(C=CC(C)=NNC(=O)c2ccncc2)cc1		inconclusive [inhibitor, single point]
COc1ccc(-c2c(C)nn3c(Cl)c(C)c(C)nc23)cc1		inconclusive [inhibitor, partial curve]
Cc1ccc(S(=O)(=O)N2CCOCC2)cc1NC(=O)C1=NN(c2ccccc2)C(=O)CC1	inactive: -15.8%	
O=C(CSc1nc2ccccc2n1-c1ccccc1)Nc1ncc(Cl)cc1Cl		inconclusive [inhibitor, partial curve]
Cc1cnc(CNc2ncncc2-c2ccccc2CN(C)C)cn1		inconclusive [inhibitor, single point]
Cc1ccc(-n2c(Cl)c(Cl)nc(Cl)c2=O)cc1		active: 0.92 µM
Cc1c(C(=O)N2CCN(c3ccccn3)CC2)oc2ccccc12		inconclusive [inhibitor, single point]
COc1ccc(C)cc1NC(=O)CCn1nc(C)cc1C		inconclusive [inhibitor, partial curve]

SMILES	activity change, negative = growth inhibition	Potency
CCOC(=O)C(C)Oc1ccccc1C1NC(=O)NC(C)=C1C(=O)Nc1ccc(C)c(C)c1 (stereo unspecified)		inconclusive [inhibitor, single point]
CC(=O)Nc1ccc(S(=O)(=O)NNc2ccc([N+](=O)[O-])cc2)cc1		inconclusive [inhibitor, single point]
O=c1[nH]c(-c2ccccc2Cl)nc2c1sc(=S)n2-c1ccccc1		inconclusive [inhibitor, partial curve]
COc1ccccc1NC(=O)Nc1nc(CC(=O)N2CCN(c3ccc(F)cc3)CC2)cs1		inconclusive [inhibitor, single point]
O=c1cccc(-c2cccc3ccccc23)o1		inconclusive [inhibitor, single point]
Cc1ccc(NC(=O)CCN2CCOCC2)cc1C	inactive: 13.7%	
CN(C)c1ncc2nc(CCc3ccccc3)c(=O)n(Cc3ccc(F)cc3)c2n1	inactive: -27.1%	
CC(C)NC(=O)c1ccc(-n2nc(C(F)(F)F)c3c2CCCC3)cc1		inconclusive [inhibitor, partial curve]
CC(=O)c1ccc(Oc2nc3c(c(=O)n(C)c(=O)n3C)n2C)cc1	inactive: 1.54%	
Cc1ccc(NC(=O)Cn2c(=O)c(CNc3ccccc3)cc3cc4c(cc32)OCCO4)cc1		inconclusive [inhibitor, single point]
CCN(CC)C(=O)C1=C(C)Nc2nc3ccccc3n2C1c1cccc(Cl)c1 (stereo unspecified)		inconclusive [inhibitor, single point]
CCOC(=O)N1CCN(C(c2ccc(C)cc2)c2sc3nc(C)nn3c2O)CC1 (stereo unspecified)		inconclusive [inhibitor, partial curve, poor fit]
COC(=O)c1ccc(COc2ccc(/C=N/NC(N)=S)cc2)o1		inconclusive [inhibitor, partial curve, poor fit]
CCC(=O)c1ccc(N2CCN(C(=O)c3cccs3)CC2)c(F)c1		active: 20.6 µM
CC(C)C[C@@H](CN1CCC[C@@H]1CN1C(=S)NC[C@@H]1Cc1ccccc1)N1C[C@H](Cc2ccc(O)cc2)N(CC2CCCCC2)C1=S		active: 23.1 µM
CCOC(=O)c1nnc(-c2ccccc2)nc1Sc1c(Cl)cccc1Cl		active: 16.4 µM
O=C(Nc1ccc(O)c(-c2nc3ccccc3o2)c1)C1(c2ccc(Br)cc2)CCCC1		active: 13 µM
COc1ccc(-c2nc3n(n2)C(c2ccccc2)C2=C(CCCC2=O)N3)cc1OC (stereo unspecified)	inactive: 11.4%	
Cc1ccc(C2(CCNC(C)c3cccs3)CCOC(C(C)C)C2)cc1 (stereo unspecified)		inconclusive [inhibitor, single point]
O=C(NCCc1nc2ccccc2[nH]1)/C(=C/c1ccco1)NC(=O)c1ccc(Br)cc1		inconclusive [inhibitor, partial curve, poor fit]
COC(=O)c1ccc(NC(=O)CSc2n[nH]c(CC(C)C)n2)cc1	inactive: 5.23%	
CCC(=O)Nc1sc(C(=O)Nc2ccccc2OC)c(C)c1C(=O)OC		inconclusive [inhibitor, partial curve]
COC(=O)c1c(NC(=O)CN2CCN(C(=O)c3ccco3)CC2)c2c(C)cccc2n1C		inconclusive [inhibitor, single point]
CCc1cc(C(=O)OC)c(NC(=O)CN2CCN(C(=O)c3ccco3)CC2)s1		inconclusive [inhibitor, single point]

SMILES	activity change, negative = growth inhibition	Potency
Cc1cc(C)c(CN2CCN(CCCn3ccc(NC(=O)OCc4ccccc4)nc3=O)CC2)c(C)c1		active: 18.4 µM
COc1ccc(NC(=O)C[C@H]2C(=O)N(Cc3ccccc3)C[C@@H]2CSC)cc1		inconclusive [inhibitor, single point]
CCOc1ccccc1NC(=O)COc1cccnc1[N+](=O)[O-]		inconclusive [inhibitor, single point]
CCC/C(C#Cc1cc(OC)cc(OC)c1)=C1/c2ccccc2C(=O)N1c1ccccc1		inconclusive [inhibitor, partial curve]
CC1CCN(CC(C)OC(=O)c2ccc3c(c2)OCCO3)CC1 (stereo unspecified)	inconclusive: -30.4% [inhibitor]	
Cc1nc2ccccc2nc1OCc1cccc(Cl)c1		active: 14.6 µM
CCOC(=O)c1c(CN2CCN(C)CC2)n(-c2ccccc2)c2cc(Br)c(O)cc12		active: 23.1 µM
COc1ccc(OCc2cc(C(=O)NC(C)Cc3ccccn3)no2)c(Cl)c1 (stereo unspecified)		inconclusive [inhibitor, single point]
Cc1c(C(=O)NCc2ccc(C(F)(F)F)cc2)sc(=O)n1Cc1cccc(F)c1		inconclusive [inhibitor, single point]
COc1ccc(C2SCCN2C(=S)Nc2ccc(F)cc2)cc1 (stereo unspecified)		inconclusive [inhibitor, partial curve, poor fit]
NS(=O)(=O)c1ccc(CCN=C(NS(=O)(=O)c2cccs2)c2ccccc2)cc1	inactive: 29.5%	
O=C(NCc1cccnc1)C1CCCN(S(=O)(=O)c2cccc3nsnc23)C1 (stereo unspecified)	inactive: -21.1%	
Cc1cc(C)c(S(=O)(=O)c2ccccc2)c(OC(=O)c2c(F)cccc2Cl)n1	inactive: -16.8%	
CC(C)c1ccc(NC(=S)NN(c2ccccc2)c2ccccc2)cc1		active: 25.9 µM
Cc1ccc(C(=O)Nc2nc(-c3ccc(F)cc3)cs2)o1		inconclusive [inhibitor, single point]
CC1CCC(NC(=O)C2CCN(S(=O)(=O)c3ccc4nc5c(c(C(=O)O)c4c3)CC(C)CC5)CC2)CC1 (stereo unspecified)	inactive: 9.1%	
COc1c(C=O)cc2c3c1CCCN3CCC2	inconclusive: -32% [inhibitor]	
Cc1c(Cl)cccc1NC(=S)N1CCN(C(=O)C2CCCO2)CC1 (stereo unspecified)		inconclusive [inhibitor, single point]
CCOc1cc(C(=O)OCC(=O)Nc2ccc(Cl)cn2)ccc1OCC(=O)N1CCOCC1		inconclusive [inhibitor, single point]
CC1C(=O)N(Cc2cn(Cc3ccco3)nn2)CCS(=O)(=O)N1Cc1ccc(-c2ccc(F)cc2)cc1 (stereo unspecified)		inconclusive [inhibitor, single point]
FC(F)(F)c1ccccc1Cc1c(-c2ccc(Cl)cc2)nc2c3ccccc3ccn12		active: 25.9 µM
COc1ccccc1N1C(=O)C(Cl)=C(Nc2ccccc2O)C1=O		inconclusive [inhibitor, single point]
CCOC(=O)c1ccc(-c2c(C)cc3oc(=O)cc(-c4ccccc4)c3c2C)cc1		inconclusive [inhibitor, single point]
